PubChem BioAssay AID624417 (National Center for Advancing Translational Sciences (NCATS), 2012)
The whole screen tested about 410,000 compounds, of which about 6,400 (1.6%) were called active. The shares of active, inactive and inconclusive entries below differ from those in the screen. Calls come from the whole dose curve; as a rule, active = well fitted inhibition curve with a large enough effect; inconclusive = small, poorly fitted or top-dose-only effect; inactive = no such curve, though single readings can be large or run the other way. Where the call is inconclusive, the potency comes from a doubtful curve fit.

What follows are compounds tested against Glucagon-like peptide 1 receptor (Homo sapiens) (UniProt P43220) (assay: qHTS of GLP-1 Receptor Inverse Agonists (Inhibition Mode)). Settings: HEK293 GLP-1R CRE-luciferase, luminescence, 24 h, GLP-1R form is constitutively active; activity change, negative = inhibition: at 38.3 µM (top of the series) unless noted.
How it was run: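 HEK293 cells stably co-expressing constitutively active GLP-1R and a cAMP-responsive luciferase reporter were seeded in DMEM with 10% Nu serum, given compounds after 12 h, and incubated 24 h at 37 deg C. Luminescence was then read.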
% is set by controls: 0 for no effect and ±100 for the full control effect; potency is the fitted concentration of half-maximal effect; tags give direction and shape of the fitted curve.
Note: nearly all actives have a fitted effect of over 55% in size.

Sequence of UniProt P43220 (P43220 whole entry, looked up): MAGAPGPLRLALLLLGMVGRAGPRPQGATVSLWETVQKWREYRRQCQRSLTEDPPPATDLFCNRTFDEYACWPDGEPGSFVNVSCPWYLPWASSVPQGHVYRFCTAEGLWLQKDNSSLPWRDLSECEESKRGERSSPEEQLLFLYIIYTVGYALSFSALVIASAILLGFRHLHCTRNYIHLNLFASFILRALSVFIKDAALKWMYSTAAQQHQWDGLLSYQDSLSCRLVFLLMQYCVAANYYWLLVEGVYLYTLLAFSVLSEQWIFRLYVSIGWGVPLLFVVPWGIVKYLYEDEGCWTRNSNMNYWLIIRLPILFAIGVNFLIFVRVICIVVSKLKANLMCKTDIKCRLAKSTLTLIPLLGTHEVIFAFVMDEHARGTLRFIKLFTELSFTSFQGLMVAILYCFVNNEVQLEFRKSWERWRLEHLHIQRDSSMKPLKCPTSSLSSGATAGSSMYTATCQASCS

Potency, inconclusive:
CC(C)c1cc(-c2nc(-c3ccccc3)no2)n[nH]1 12.6 µM [inhibitor, single point]
COC(=O)c1c(NC(=O)C(Cl)Cl)sc2c1C(C(=O)OC)CC2 (stereo not drawn) 11.2 µM [inhibitor, partial curve, poor fit]
COc1ccc(-c2c(C)cc3oc(=O)cc(-c4ccccc4)c3c2C)cc1C=O 28.2 µM [inhibitor, single point]
COc1ccc(C2C(C#N)=C(C)NC(C)=C2C(=O)OC(C)C)c(OC)c1 (stereo not drawn) 28.2 µM [inhibitor, single point]
Cc1onc(-c2c(F)cccc2Cl)c1C(=O)N1C=CC(C(F)(F)F)=NCC1 14.1 µM [inhibitor, single point]
CCC(C)(C)NC(=O)C(c1ccccc1)N(Cc1cccs1)C(=O)Cn1nnc2ccccc21 (stereo not drawn) 8.91 µM [inhibitor, partial curve, poor fit]
O=C(CN1CCN(c2ncccn2)CC1)Nc1ccccc1-n1cccc1 10 µM [inhibitor, partial curve, poor fit]
COc1ccccc1C(=O)Nc1ccc(S(=O)(=O)N2CCCCC2)cc1 28.2 µM [inhibitor, single point]
Cc1nn(-c2ccccc2)c(C)c1/C=N/Nc1nc2ccccc2[nH]1 28.2 µM [inhibitor, single point]
COc1ccccc1N1CCN(CC(O)COc2ccc(C)c(C)c2)CC1 (stereo not drawn) 10 µM [inhibitor, partial curve]
O=C(NCC(c1ccco1)N1CCc2ccccc2C1)c1ccc(Br)cc1 (stereo not drawn) 28.2 µM [inhibitor, single point]
CCOc1cc(/C=N/NC(=O)CN2CCCCC2)ccc1OCc1ccccc1 28.2 µM [inhibitor, single point]
O=C(Cn1ccc(C(F)(F)F)n1)Nc1cccc(S(=O)(=O)N2CCCCC2)c1 31.6 µM [inhibitor, single point]
CCOC(=O)N1CCN(CC(O)COc2ccc(C(C)C)c(C)c2)CC1 (stereo not drawn) 12.6 µM [inhibitor, single point]
COc1ccc(NS(=O)(=O)c2csc(C(=O)Nc3ccccc3)c2)cc1 31.6 µM [inhibitor, partial curve, poor fit]
O=C(CSc1nc(-c2ccccc2)[nH]c1-c1ccccc1)Nc1ccc2c(c1)OCCO2 12.6 µM [inhibitor, single point]
CCC(=O)Nc1ccc2nc(SCc3ccc(C)cc3)sc2c1 12.6 µM [inhibitor, single point]
Cc1nc(N2CCCC2)c2c(C(=O)N3CCN(c4cccc(C)c4C)CC3)c(C)oc2n1 28.2 µM [inhibitor, single point]
Cc1ccc(NC(=O)C(Cc2ccccc2)N2C(=O)C3C4CCC(C4)C3C2=O)cc1Cl (stereo not drawn) 5.62 µM [inhibitor, partial curve]
CC(C)(C)c1ccc(S(=O)(=O)NCc2nc3cccnc3n2Cc2ccccc2Cl)cc1 28.2 µM [inhibitor, single point]
CCOc1ccc(OCCC(=O)Nc2cccc(S(=O)(=O)N3CCCC3)c2)cc1 8.91 µM [inhibitor, partial curve]
CC(C)n1ncc2c(C(=O)NCC(=O)Nc3ccccc3Br)cc(C3CC3)nc21 28.2 µM [inhibitor, single point]
COc1ccc([N+](=O)[O-])cc1NS(=O)(=O)c1ccc(C)cc1 31.6 µM [inhibitor, single point]
COc1cc(Cl)c(C)cc1NC(=O)CSc1ccccc1 12.6 µM [inhibitor, single point]
CN(Cc1ccc(OCC(O)CN2CCCCC2)cc1)Cc1ccnc2ccccc12 (stereo not drawn) 11.2 µM [inhibitor, partial curve, poor fit]
CN1CCN(Cc2c(C#N)c3ccccc3n2C)CC1 35.5 µM [inhibitor, partial curve, poor fit]
CCOc1ccc(S(=O)(=O)N(CC(=O)N/N=C/c2cccs2)c2ccc(C)cc2)cc1 28.2 µM [inhibitor, single point]
Cc1cccc(Nc2nc(N)c([N+](=O)[O-])c(N3CC(C)CC(C)C3)n2)c1 (stereo not drawn) 28.2 µM [inhibitor, single point]
Cc1nn(CC2CCCCC2)c(N)c1-c1ccccc1 3.98 µM [inhibitor, partial curve, poor fit]
COc1ccc(NC(=O)c2cc(-c3cc(OC)c(OC)c(OC)c3)nc3ccccc23)c(OC)c1 11.2 µM [inhibitor, partial curve, poor fit]
COc1ccc(NC(=O)N(C)C[C@H]2OCCCC[C@H](C)Oc3ccc(NC(=O)Nc4ccc5c(c4)OCO5)cc3C(=O)N([C@@H](C)CO)C[C@@H]2C)cc1 8.91 µM [inhibitor, partial curve, poor fit]
O=C(Nc1nc2ccccc2s1)NC1CCCCC1 28.2 µM [inhibitor, single point]

Potency, active:
CCOC(=O)C1=C(c2ccccc2)N=c2s/c(=C\c3cccc(O)c3)c(=O)n2C1c1cccs1 (stereo not drawn) 11.2 µM
O=C(Nc1ccc(S(=O)(=O)N2CCOCC2)cc1)c1cc(-c2cc(Cl)ccc2O)n[nH]1 3.55 µM

Activity change, negative = inhibition, inactive:
O=C1c2cccc3c(N4CCCCC4)ccc(c23)C(=O)N1c1ccccc1O -17%
CC(/C=C/c1ccco1)=N\NC(=O)CNc1cccc(C)c1 5.4%
CC[C@H](C)[C@H](NC(N)=O)C(=O)Nc1ccc(OC)c(Cl)c1 3.43%
O=C(CCc1ccccc1)n1nc(-c2ccco2)nc1SCc1ccccc1 0.752%
